{"source": "the antibiotic and cytotoxicity screens of Wong et al. (2023)", "note": "This is one part of the list.", "data": [{"test_system": "HSkMC (human skeletal muscle cells)", "assay": "cytotoxicity call (relative viability < 0.9)", "conditions": "10 µM", "values": [{"smiles": "C[C@H]1CN([C@@H](C)CO)C(=O)c2cc(C#CCN(C)C)cnc2O[C@@H]1CN(C)S(=O)(=O)c1cn(C)cn1", "cytotoxicity call": "inactive"}, {"smiles": "COc1ccccc1CN1C(=O)c2ccccc2[C@](Cc2ccccc2I)(C(=O)NCCCN(C)C)[C@@H]1c1ccc(CO)cc1", "cytotoxicity call": "inactive"}, {"smiles": "C[C@@H]1CCCCO[C@@H](CN(C)C(=O)Nc2cccc3ccccc23)[C@H](C)CN([C@H](C)CO)C(=O)c2cc(NS(C)(=O)=O)ccc2O1", "cytotoxicity call": "inactive"}, {"smiles": "Cc1ccc(S(=O)(=O)N(C)C[C@H]2OCCCC[C@H](C)Oc3ccc(NC(=O)c4ccccc4)cc3C(=O)N([C@@H](C)CO)C[C@H]2C)cc1", "cytotoxicity call": "inactive"}, {"smiles": "C[C@H]1CN([C@@H](C)CO)C(=O)c2cc(NS(=O)(=O)c3ccc(F)cc3)ccc2O[C@H]1CN(C)S(=O)(=O)c1cn(C)cn1", "cytotoxicity call": "inactive"}, {"smiles": "Cc1noc(C)c1S(=O)(=O)Nc1cccc2c1O[C@@H](CN(C)Cc1ccc(Oc3ccccc3)cc1)[C@@H](C)CN([C@H](C)CO)C2=O", "cytotoxicity call": "inactive"}, {"smiles": "O=C1c2ccccc2[C@](Cc2ccccc2I)(C(=O)NCc2ccccc2)[C@H](c2ccc(CO)cc2)N1Cc1ccccc1C(F)(F)F", "cytotoxicity call": "inactive"}, {"smiles": "C[C@@H]1CN([C@H](C)CO)C(=O)c2cc(NC(=O)CCC(F)(F)F)ccc2O[C@@H](C)CCCCO[C@@H]1CN(C)C(=O)c1ccccc1", "cytotoxicity call": "inactive"}, {"smiles": "COc1ccc(CN(C)C[C@H]2OCCCC[C@@H](C)Oc3ccc(NS(=O)(=O)c4ccc(Cl)cc4)cc3C(=O)N([C@@H](C)CO)C[C@@H]2C)cc1", "cytotoxicity call": "inactive"}, {"smiles": "NCCONC(=O)[C@@H]1CC[C@@H]2CN1C(=O)N2OS(=O)(=O)O", "cytotoxicity call": "inactive"}]}]}
